Cytotoxicity call data for 29 compounds are collected here from the antibiotic and cytotoxicity screens of Wong et al. (2023).

Some of the results follow.

This test concerns HSkMC (human skeletal muscle cells). The test is described as follows: cytotoxicity call (relative viability < 0.9). Particulars: 10 µM.
As for `COCC#Cc1cnc2c(c1)C(=O)N([C@@H](C)CO)C[C@H](C)[C@@H](CN(C)S(=O)(=O)c1ccccc1)O2`, the cytotoxicity call is “inactive”. For the compound `COc1ccc(S(=O)(=O)Nc2ccc3c(c2)C(=O)N([C@@H](C)CO)C[C@H](C)[C@@H](CN(C)C(=O)c2ccccc2)OCCCC[C@@H](C)O3)cc1`, the cytotoxicity call was “inactive”.

As to `COc1ccc(CNC(=O)N(C)C[C@H]2OCc3ccccc3-c3c(n(C)c4ccccc34)C(=O)N([C@@H](C)CO)C[C@@H]2C)cc1`, the cytotoxicity call was “inactive”. For the compound `C[C@H](CO)N1C[C@H](C)[C@@H](CN(C)C(=O)c2cnccn2)Oc2cc(C3=CCCC3)ccc2S1(=O)=O`, the cytotoxicity call is “inactive”.

As to `C[C@@H]1CN([C@@H](C)CO)C(=O)c2cc(NC(=O)CCC(F)(F)F)ccc2O[C@@H](C)CCCCO[C@@H]1CN(C)S(=O)(=O)c1ccc(F)cc1`, the cytotoxicity call is “inactive”.

Take `C[C@H](CO)N1C[C@H](C)[C@@H](CN(C)Cc2ccc(Cl)c(Cl)c2)Oc2ccc(NC(=O)Nc3ccc4c(c3)OCO4)cc2C1=O`: the cytotoxicity call is “inactive”. On to `CC1(C)C(=O)NCCN1C(=O)c1ccco1`, for which the cytotoxicity call was “inactive”.

As to `COCC(=O)N(C)C[C@H]1Oc2cc(C#CCC3CCCC3)ccc2S(=O)(=O)N([C@H](C)CO)C[C@@H]1C`, the cytotoxicity call is “inactive”. For the compound `C[C@@H]1CN([C@@H](C)CO)S(=O)(=O)c2ccc(-c3ccncc3)cc2O[C@H]1CN(C)S(=O)(=O)c1ccccc1F`, the cytotoxicity call was “inactive”. The value for `O=C(C[C@H]1C[C@H]2c3cc(NS(=O)(=O)c4ccc(F)cc4)ccc3O[C@H]2[C@H](CO)O1)NCc1ccccc1F` was “inactive”; that for `C[C@@H]1CCCCO[C@@H](CN(C)S(=O)(=O)c2cn(C)cn2)[C@H](C)CN([C@H](C)CO)C(=O)c2cc(NC(=O)Nc3ccc(C(F)(F)F)cc3)ccc2O1` was “inactive”. With `O=C(NCc1ccc(F)cc1)[C@H]1[C@H](CO)[C@H]2Cn3c(cccc3=O)[C@@H]1N2C(=O)c1cnccn1` the entry was “inactive”. As to `Nc1nc(=O)c2c([nH]1)CN(C(=O)[C@H]1CCOC1)CC2`, the cytotoxicity call was “inactive”. For `COc1ccc(CN(C)C[C@@H]2OCCCC[C@H](C)Oc3ccc(NC(=O)Nc4ccc(OC)cc4)cc3C(=O)N([C@@H](C)CO)C[C@H]2C)cc1`, the cytotoxicity call is “inactive”. As for `C[C@@H]1CN([C@H](C)CO)C(=O)c2cccc(NC(=O)c3ccc(-c4nccs4)cc3)c2O[C@H]1CN(C)C(=O)Nc1ccc(C(F)(F)F)cc1`, the cytotoxicity call is “inactive”.

Take `COc1ccccc1S(=O)(=O)N(C)C[C@@H]1Oc2cc(C#CCC(C)C)ccc2S(=O)(=O)N([C@H](C)CO)C[C@H]1C`: the cytotoxicity call was “inactive”. For `COc1ccc(S(=O)(=O)Nc2ccc3c(c2)C(=O)N([C@H](C)CO)C[C@@H](C)[C@H](CN(C)Cc2ccc(C(=O)O)cc2)OCCCC[C@@H](C)O3)cc1`, the cytotoxicity call was “inactive”. As for `C[C@H]1C[C@@H]2[C@@H](C[C@@H]1C)N[C@@H]1C(=O)NC(=O)N[C@H]1N2C[C@H](O)[C@H](O)[C@H](O)CO`, the cytotoxicity call was “inactive”. Take `Cc1noc(C)c1NC(=O)N(C)C[C@@H]1Oc2cc(C#CCN(C)C)ccc2S(=O)(=O)N([C@H](C)CO)C[C@H]1C`: the cytotoxicity call is “inactive”. For `C[C@H]1CN([C@@H](C)CO)C(=O)c2cccc(NC(=O)C3CC3)c2O[C@H]1CN(C)S(=O)(=O)c1ccccc1`, the cytotoxicity call was “inactive”. In the case of `C[C@H](O)C#Cc1cnc2c(c1)C(=O)N([C@@H](C)CO)C[C@@H](C)[C@H](CN(C)C(=O)CN1CCOCC1)O2`, the cytotoxicity call is “inactive”. With `O=C(C[C@H]1C[C@H]2c3cc(NS(=O)(=O)c4ccc(F)cc4)ccc3O[C@H]2[C@H](CO)O1)NCc1ccncc1` the entry was “inactive”. Regarding `C[C@@H]1CN([C@H](C)CO)C(=O)c2cccc(NS(=O)(=O)c3ccccc3)c2O[C@@H]1CN(C)Cc1ccc(Cl)c(Cl)c1`, the cytotoxicity call is “inactive”. Consider `COc1ccc(S(=O)(=O)Nc2ccc3c(c2)C(=O)N([C@H](C)CO)C[C@H](C)[C@H](CN(C)S(=O)(=O)c2ccc(C)cc2)O3)cc1`, for which the cytotoxicity call was “inactive”.

In the case of `O=C1CN(C(=O)c2ccccc2)C(=S)N1`, the cytotoxicity call is “inactive”. As to `CN(C)CCCNC(=O)C[C@@H]1C=C[C@@H](NS(=O)(=O)c2ccccc2)[C@H](CO)O1`, the cytotoxicity call is “inactive”. For `C[C@@H]1CCCCO[C@@H](CN(C)Cc2ccncc2)[C@H](C)CN([C@H](C)CO)C(=O)c2cc(NC(=O)C3CCCCC3)ccc2O1`, the cytotoxicity call was “inactive”. Regarding `Cc1noc(C)c1S(=O)(=O)N(C)C[C@H]1OCCCC[C@H](C)Oc2ccc(NC(=O)Nc3ccc(C(F)(F)F)cc3)cc2C(=O)N([C@@H](C)CO)C[C@@H]1C`, the cytotoxicity call was “inactive”. As to `C[C@H](CO)N1C[C@H](C)[C@H](CN(C)C(=O)Cc2ccccc2)OCCCC[C@H](C)Oc2ccc(NC(=O)Nc3ccc(C(F)(F)F)cc3)cc2C1=O`, the cytotoxicity call is “inactive”.
